The whole screen tested about 340,000 compounds, of which about 12,000 (3.5%) were called active. Inconclusive means that the source gave no clear call. Such entries were picked first, then a sample of the others. The call rests on the fitted dose curve; in most records, active means well fitted inhibition curve with a large enough effect; inconclusive means small, poorly fitted or top-dose-only effect, or another doubt; inactive means no such curve, though single readings can be large or run the other way. Potencies of inconclusive entries are left out as doubtful fits.
Assay: qHTS Assay for Inhibitors of Hepatitis C Virus (HCV)
Details: Huh7.5.1 HCVcc-Cre (HCVcc is cell-culture hepatitis C virus) infection, luciferase reporter, 44 h; activity change, negative = inhibition: at 41.8 µM (top of the series)
Summary of the method: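 Cells seeded at 1,000/well and cultured 4 h, then compounds added followed by HCVcc-Cre virus (~0.5 moi). After 44 h further culture, luciferase substrate was added, plates held 15 min at room temperature, and luminescence read for 15 sec.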
On the % scale 0 is the no-effect control and ±100 the full control effect; potency means the concentration at half of the fitted maximal effect; tags describe the fitted curve by direction and shape.

| SMILES | Potency | activity change, negative = inhibition |
| --- | --- | --- |
| Cc1c(C(=O)N(Cc2cccc(Br)c2)C2CCS(=O)(=O)C2)oc2ccccc12 (centres undefined) | inconclusive [inhibitor, single point] |  |
| Cc1ccc2cc(C#N)c(SCC(=O)Nc3ccc4sc(C)nc4c3)nc2c1 | inactive |  |
| CCCc1cc(=O)[nH]c(SCC(=O)c2c(N)n(CC(C)C)c(=O)n(C)c2=O)n1 | inconclusive [inhibitor, single point] |  |
| C=CCn1c(COc2ccc(F)cc2)nnc1SCC(=O)NC1CCS(=O)(=O)C1 (centres undefined) | inactive |  |
| CCC(=O)Nc1ccc(N2CCN(C(=O)c3ccccc3C)CC2)cc1 | inconclusive [inhibitor, single point] |  |
| Cc1ccc(S(=O)(=O)NC(=O)NCCc2ccccc2)cc1 | inactive |  |
| CCNC(=O)COc1ccc(/C=N/NC(=O)c2cccnc2)cc1OC | inactive |  |
| Cc1cc(/C=C2/C(=O)N(C)C(=S)N2C)ccc1N1CCCC1 | inactive |  |
| O=C(Nc1cc(C(F)(F)F)ccc1F)C1CCCC1 | inactive |  |
| Cc1c(C(=O)N2CCCCC2)nn(-c2ccc(Cl)cc2)c(=O)c1C#N | inactive |  |
| O=S(=O)(c1ccccc1)c1cnn2c(C(F)(F)F)cc(-c3ccccc3)nc12 | inconclusive [inhibitor, partial curve] |  |
| O=C1NC(=Nc2ccccc2)S/C1=C\c1cccn1-c1ccccc1 | active: 2.82 µM |  |
| CN(Cc1ccccc1)C(=O)C1CCCN(Cc2ccc(Cl)cc2)C1 (centres undefined) | active: 1.41 µM |  |
| CN(Cc1ccno1)C(=O)CC1C(=O)NCCN1CC(c1ccccc1)c1ccccc1 (centres undefined) | inactive |  |
| COc1ccc(-n2c(SCCNCCO)nc3sc4c(c3c2=O)CCCC4)cc1 | active: 2.82 µM |  |
| COc1cc2c(c(OC)c1OC)C(c1ccc(C)cc1)CC(=O)O2 (centres undefined) | inactive |  |
| COc1cc(/C=C/C(=O)OCC(=O)Nc2c(C)n(C)n(-c3ccccc3)c2=O)ccc1O | inactive |  |
| O=C(c1cccc(Br)c1)N1CCCC1 | inactive |  |
| O=S(=O)(/N=C(\Sc1ccccc1)c1ccccc1)c1ccc(Cl)cc1 | inactive |  |
| CN1CCN(C(=O)CSc2nc(-c3cccs3)cc(-c3cccs3)c2C#N)CC1 | inconclusive [inhibitor, partial curve, poor fit] |  |
| Cc1cn([C@@H](CCCCN)C(=O)NCCCCCCCCCCC(=O)N2CCNCC2)nn1 | inactive |  |
| Cc1cc(C(=O)Cn2nc(C(=O)O)c3ccccc3c2=O)c(C)n1-c1cccc(C(F)(F)F)c1 | inactive |  |
| CCN(Cc1ccccc1)C(=O)C(C)OC(=O)c1cc(S(=O)(=O)Nc2c(C)n(C)n(-c3ccccc3)c2=O)ccc1C (centres undefined) | inactive |  |
| CCN(C[C@H]1N[C@@](C)(C(=O)OC)[C@H]2C(=O)N(Cc3ccccc3)C(=O)[C@@H]12)C(=O)c1ccccc1 | inconclusive [inhibitor, single point] |  |
| CCCCn1c(N)c(N(CCOC)C(=O)CN(C)CC(=O)Nc2ccc(Cl)c(Cl)c2)c(=O)[nH]c1=O | inconclusive [inhibitor, partial curve] |  |

| SMILES | Potency | activity change, negative = inhibition |
| --- | --- | --- |
| COc1cccc(C(=O)NCCCNC(=O)c2cccc(OC)c2)c1 | inactive |  |
| CN(C)CCN(CC1CCCN(Cc2ccccc2F)C1)C(=O)Cc1ccccc1F (centres undefined) | inconclusive [inhibitor, single point] |  |
| CCN1CCN(c2ccc(S(=O)(=O)N3CCCCC3)cc2NC(=O)c2ccccc2)CC1 | inactive |  |
| Cc1ccc(S(=O)(=O)NC(=O)c2ccc(-c3ccc(-c4ccccc4)cc3)o2)c(C)c1 |  | inactive: 12.6% [at 8.37 µM] |
| CC(C)Oc1ccc(N2C(=O)c3ccccc3C2=O)cc1 | inactive |  |
| O=C(NCc1ccco1)c1ccccc1-c1ccccc1 | inactive |  |
| O=C(Cc1ccccc1)N/N=C/c1ccccn1 | inactive |  |
| CCCCCC(O)CCC(=O)NNC1=CC(=O)CC(C)(C)C1 (centres undefined) | inconclusive [inhibitor, partial curve, poor fit] |  |
| O=C(CCc1ccc(S(=O)(=O)N2CCOCC2)cc1)Nc1nc(COc2ccccc2)cs1 | inconclusive [inhibitor, partial curve, poor fit] |  |
| Cc1sc2ncnc(N3CCC(C(=O)NCC(=O)Nc4ccc(F)c(F)c4)CC3)c2c1C | active: 8.91 µM |  |
| COc1ccccc1C(=O)Nc1ccc(S(=O)(=O)N(C)c2ccccc2)cc1 | inconclusive [inhibitor, single point] |  |
| COc1cccc(-c2cc(C(=O)Nc3cc(C)nn3-c3ccccc3)no2)c1 | inconclusive [inhibitor, single point] |  |
| CCN(CC)C(=O)CSC1=Nc2ccccc2C2=NC(Cc3c[nH]c4ccccc34)C(=O)N12 (centres undefined) | inconclusive [inhibitor, single point] |  |
| C=CCOc1c(Cl)cc(CNc2ccc(N(C)C)cc2)cc1OC | inconclusive [inhibitor, partial curve] |  |
| COc1cc(C(=O)Oc2ccccc2/C=N/NC(=O)c2ccc(C)c(Cl)c2)cc(OC)c1OC | inconclusive [inhibitor, full curve] |  |
| CCC1(CC)NC(=O)N(CC(=O)OCc2nc3cc(C(=O)OC)ccc3c(=O)[nH]2)C1=O | inactive |  |
| CCOC(=O)c1ccc2[nH]c3c(c2c1)CCCC3NC=O (centres undefined) | inconclusive [inhibitor, single point] |  |
| N#Cc1cc2c([nH]c1=S)CCCC2 | inactive |  |
| COc1ccc(NC(=O)c2ccco2)cc1NC(=O)c1c(F)c(F)c(OC)c(F)c1F | inconclusive [inhibitor, full curve] |  |
| Cc1ccc(NC(=O)CN2CCCC2c2cccn2C)c(Br)c1 (centres undefined) | inconclusive [inhibitor, single point] |  |
| Clc1ccccc1Cc1noc(CN2CCN3CCCC3C2)n1 (centres undefined) | inactive |  |
| CCC1C(=NO)C(CC)C(c2ccccc2)NC1c1ccccc1 (centres undefined) | inconclusive [inhibitor, single point] |  |
| CCOc1cc(/C=N/NC(=O)c2ccc(CN3CCOCC3)cc2)ccc1OCc1ccccc1 | inconclusive [inhibitor, full curve] |  |
| Nc1nonc1C(=O)NCCNCc1ccccc1OCc1ccc(F)cc1 | inconclusive [inhibitor, partial curve] |  |

From PubChem BioAssay AID651820 (National Center for Advancing Translational Sciences (NCATS), 2012)
